Experimental data published in the CheMixHub viscosity set.
The source gives many values for each of these; only a part stands here.

Assay: xn = mol fraction of the nth substance listed
Conditions: 101 kPa

CN(C)CCCN + O
viscosity [mPa·s]
Conditions	303.15 K	308.15 K	313.15 K	318.15 K	323.15 K
x1 = 0.0488	–	2.023	1.741	1.52	1.336
x1 = 0.0999	–	4.07	3.359	2.816	2.393
x1 = 0.147	–	5.721	4.635	3.821	3.206
x1 = 0.1743	–	6.315	5.089	4.176	3.485
x1 = 0.1999	–	6.616	5.316	4.362	3.618
x1 = 0.2247	–	6.643	5.356	4.387	3.635
x1 = 0.2497	–	6.499	5.248	4.301	3.572
x1 = 0.2744	–	6.216	5.023	4.132	3.444
x1 = 0.2998	–	5.812	4.723	3.904	3.265
x1 = 0.3238	6.728	5.416	4.423	3.672	3.081
x1 = 0.3744	5.564	4.54	3.757	3.155	2.673
x1 = 0.3988	5.044	4.143	3.448	2.905	2.475
x1 = 0.4365	4.326	3.586	3.013	2.566	2.205
